Source: PubChem BioAssay AID504832 (National Center for Advancing Translational Sciences (NCATS), 2011)
Hit rate of the full screen: of about 310,000 compounds, about 18,000 (5.8%) were called active. Inconclusive results, whose numbers are uncertain, are shown with a selection of clear calls. Calls come from the whole dose curve; as a rule, active = well fitted inhibition curve with a large enough effect; inconclusive = small, poorly fitted or top-dose-only effect, or another doubt; inactive = no such curve, though single readings can be large or run the other way. No potency is given beside an inconclusive call; the fits are too rough.
% is set by controls: 0 for no effect and ±100 for the full control effect; potency is the fitted concentration of half-maximal effect; tags give direction and shape of the fitted curve.

Assay: Primary qHTS for delayed death inhibitors of the malarial parasite plastid, 48 hour incubation
Settings: P. falciparum luciferase growth in erythrocytes; series mostly up to 28.7 µM; activity change, negative = inhibition: at the top concentration
Method in brief: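 Compounds are pin-transferred into medium, infected erythrocytes (2% hematocrit, 0.1% parasitemia final) are added, and plates sit one parasite generation at 37 C in 5% CO2. Detection reagent is then added and luminescence measured.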
In the case of CCOc1cccc(=NC2CCCCC2)c2c(C)n(C)c(C)c12, the Potency was active: 1.85 µM.
With O=C(CSc1ccccc1)NNC(=O)c1ccncc1 the “activity change, negative = inhibition” value was inactive: -15.5%.
In the case of Cc1ccc(NC(=O)CC2C(=O)NCCN2C(=O)c2ccc(F)cc2)cc1 (configuration not stated), the Potency was inconclusive [inhibitor, full curve, poor fit].
With Cc1ccc(OCC(=O)N[C@@H](C)c2nnc3ccccn23)cc1C the “activity change, negative = inhibition” value was inactive: -4.41%.
In the case of Cc1ccc(CS(=O)Cc2ccc(C(=O)NC3CCCC(C)C3C)o2)cc1 (configuration not stated), the “activity change, negative = inhibition” value was inactive: -8.55%.
With CN(Cc1ccc(C(C)(C)C)cc1)C(=O)c1ccc2c(=O)n3c(nc2c1)CCC3 the Potency was active: 13.1 µM.
With Cc1cc(NC(=O)CSc2nnc(-c3ccc([N+](=O)[O-])cc3)o2)no1 the Potency was inconclusive [inhibitor, single point].
For COc1cccc(NC(=O)CN(C)C(=O)c2c(C)nn(-c3ccccc3)c2Cl)c1, the Potency was inconclusive [inhibitor, single point].
With O=[N+]([O-])c1cc(Cl)cc(/C=N/Nc2nc3ccccc3s2)c1O the “activity change, negative = inhibition” value was inactive: 52%.
In the case of CN(C)S(=O)(=O)c1cccc(NC(=O)CCNC(=O)c2ccccc2Cl)c1, the “activity change, negative = inhibition” value was inactive: -14.3%.
In the case of CCCCC(=O)NC(=S)Nc1ccc(S(=O)(=O)N2CCCC2)cc1, the “activity change, negative = inhibition” value was inactive: -1.36%.
For COc1ccc(N=c2scc(C)n2CCCN2CCCC2=O)cc1, the Potency was inconclusive [inhibitor, full curve, poor fit].
With Cc1cccc(NC(=O)c2cccc(NC(=O)Cc3cccs3)c2)c1 the Potency was inconclusive [inhibitor, full curve].
In the case of Cc1ccc(C2(C(=O)N3CCC(n4nc(-c5ccccc5)oc4=O)CC3)CC2)cc1, the Potency was inconclusive [inhibitor, single point].
In the case of CCC1(C)OC(=O)N2CCc3c(C)[nH]c4c(C)ccc(c34)C21C (configuration not stated), the Potency was inconclusive [inhibitor, single point].
With COc1ccc(NC(=O)CN(C)C(=O)c2cn(-c3ccccc3)nc2-c2ccc(Cl)cc2)cc1 the Potency was active: 10.4 µM.
In the case of O=C(c1cccc(S(=O)(=O)N2CCCC2)c1)N1CCN(Cc2ccccc2)CC1, the Potency was inconclusive [inhibitor, partial curve, poor fit].
For COc1ccccc1CNC(=O)C1CCCN(S(=O)(=O)c2cccc3nsnc23)C1 (configuration not stated), the Potency was inconclusive [inhibitor, single point].
For Cc1ccccc1-n1nc(C)c2cc(C(=O)N3CCN(S(=O)(=O)c4ccc(F)cc4)CC3)sc21, the Potency was active: 4.65 µM.
With Cn1c(C(=O)O)c(CC(=O)NCc2cccnc2)c2ccccc21 the “activity change, negative = inhibition” value was inactive: -20%.
With CC1(C)Cc2c(c(-c3ccco3)nc3sc4c(NCCCO)ncnc4c23)CO1 the Potency was inconclusive [inhibitor, partial curve, poor fit].
For COc1cccc(-c2cnc(NCc3cc(Cl)ccc3O)n2C)c1, the Potency was inconclusive [inhibitor, partial curve].
In the case of NS(=O)(=O)c1ccc(-n2nncc2C23CC4CC(CC(C4)C2)C3)cc1, the Potency was inconclusive [inhibitor, single point].
In the case of O=C(CCN1C(=O)[C@@H]2Cc3ccccc3CN2C1=O)NCc1ccccc1Cl, the “activity change, negative = inhibition” value was inactive: -28.2%.
In the case of CCN(CC)CCOC(=O)C(C)(c1ccccc1)c1ccccc1, the Potency was inconclusive [inhibitor, single point].
With CCn1nc(C)c(CN2CCc3c([nH]c4ccccc34)C2C(C)(C)C)c1C (configuration not stated) the Potency was inconclusive [inhibitor, partial curve, poor fit].
For CN(C(=O)c1cccc(NC(=O)c2cccs2)c1)c1ccccc1, the “activity change, negative = inhibition” value was inactive: 18.7%.
For CCOC(=O)c1c(C)[nH]c(C(=O)OCC(=O)NCc2ccc(F)cc2)c1C, the Potency was inconclusive [inhibitor, partial curve, poor fit].
For CCOC(=O)CC1C(=O)NCCN1Cc1cccs1 (configuration not stated), the “activity change, negative = inhibition” value was inactive: -6.13%.
For COc1ccc(-c2csc(NC(=O)c3cccs3)c2C(=O)O)cc1OC, the Potency was inconclusive [inhibitor, single point].
With Cc1ccccc1OCC(=O)N1CCc2ccccc2C1 the “activity change, negative = inhibition” value was inactive: 13.8%.
In the case of COC(=O)c1ccc(NC(=O)C(=O)N2CCN(C(=S)NCCc3ccccc3)CC2)cc1, the Potency was inconclusive [inhibitor, partial curve].
With COc1ccc(OC)c(CNC(=O)C2CCCN(c3ncnc4c3nc3n4CCCCC3)C2)c1 (configuration not stated) the Potency was inconclusive [inhibitor, partial curve].
For CCn1cc2nc(SCC(=O)Nc3ccc(OC)cc3OC)n(Cc3ccc(OC)cc3)c(=O)c2n1, the Potency was inconclusive [inhibitor, single point].
With O=S(=O)(c1ccccc1)N1CCN(C(=S)Nc2ccccc2)CC1 the Potency was inconclusive [inhibitor, full curve].
In the case of CC(C)CC(=O)NC(=S)Nc1ccc(N2CCCC2)c(Cl)c1, the Potency was active: 3.29 µM.
For CN(CC(=O)Nc1cc(S(=O)(=O)N2CCCC2)ccc1Cl)Cc1cccs1, the Potency was inconclusive [inhibitor, single point].
With c1cncc(CSc2nnc3ccc(-c4cccs4)nn23)c1 the Potency was inconclusive [inhibitor, single point].
In the case of Cc1ccccc1NC(=S)NC(=O)Cc1ccc(Cl)cc1, the Potency was inconclusive [inhibitor, single point].
With CCS(=O)(=O)n1nc(-c2ccccc2)nc1N the “activity change, negative = inhibition” value was inactive: 3.55%.
For COc1ccccc1-c1c(C)nn2c(N3CCOCC3)cc(C)nc12, the “activity change, negative = inhibition” value was inactive: -15.6%.
With CCOC(=O)C1=C(C)NC(C)=C(C(=O)OCC)C1C(=O)OCC(=O)N1CCc2ccccc2C1 the Potency was inconclusive [inhibitor, single point].
For O=C(CSc1cccc[n+]1[O-])N1CCCCCC1, the “activity change, negative = inhibition” value was inactive: -3.95%.
With O=C(NC1CCCN(Cc2ccccc2F)C1)C1CCC1 (configuration not stated) the “activity change, negative = inhibition” value was inactive: 17.5%.
With O=C(Nc1ccc(Cl)cc1)c1ccc(-c2ccccn2)s1 the “activity change, negative = inhibition” value was inactive: 134%.
In the case of COc1ccc2c(c1)C1=C(CC2)C(c2ccc(C)cc2)NC(=S)N1 (configuration not stated), the Potency was inconclusive [inhibitor, partial curve].
For CCn1c(CSc2ncccn2)nnc1SCC(=O)N1c2ccccc2CC1C (configuration not stated), the Potency was inconclusive [inhibitor, single point].
